Results: the supplement of paper PMC11741623
The other results are listed elsewhere or left out. Interaction screen of human proteins with wild-type SARS-CoV-2 proteins by split-DHFR complementation in yeast, 1 µg/mL methotrexate. Value = fitness of the pair (three or more lineages) minus that of the viral protein without a human partner, on a scale set by negative (0) and fused positive (1) controls, mean of up to three cultures; higher = more likely to interact. Active = false discovery rate below 0.05 (one-sided t-test) in at least one culture. Nearly all pairs are not hits, and differences among them are mostly noise (correlation between cultures about 0.3); most hits were seen in one culture only. Human sequences are the Swiss-Prot entries looked up by gene name; the clone may be another isoform. NSP2 values were corrected by the authors for a growth advantage. Listed are human proteins with a hit and a random twelfth of the others.

Legend:
Experiment in all cases: yeast fitness gain over the viral ORF with no human partner (scaled fitness); higher = more likely to interact
SARS-CoV-2 E = target: SARS-CoV-2 E
Procedure: (§1)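 Split mouse DHFR complementation in pooled diploid yeast: human ORFeome clones carry one fragment and viral ORFs the other; barcoded lineages compete in 1 µg/mL methotrexate and fitness is read by barcode sequencing in up to three cultures.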

SARS-CoV-2 M = target: SARS-CoV-2 M
Procedure: as §1

SARS-CoV-2 NSP1 = target: SARS-CoV-2 NSP1
Procedure: as §1

SARS-CoV-2 NSP10 = target: SARS-CoV-2 NSP10
Procedure: as §1

SARS-CoV-2 NSP12 = target: SARS-CoV-2 NSP12
Procedure: as §1

SARS-CoV-2 NSP13 = target: SARS-CoV-2 NSP13
Procedure: as §1

SARS-CoV-2 NSP15 = target: SARS-CoV-2 NSP15
Procedure: as §1

SARS-CoV-2 NSP16 = target: SARS-CoV-2 NSP16
Procedure: as §1

SARS-CoV-2 NSP2 = target: SARS-CoV-2 NSP2
Procedure: as §1

SARS-CoV-2 NSP5 = target: SARS-CoV-2 NSP5
Procedure: as §1

SARS-CoV-2 NSP6 = target: SARS-CoV-2 NSP6
Procedure: as §1

SARS-CoV-2 NSP7 = target: SARS-CoV-2 NSP7
Procedure: as §1

SARS-CoV-2 NSP9 = target: SARS-CoV-2 NSP9
Procedure: as §1

SARS-CoV-2 ORF10 = target: SARS-CoV-2 ORF10
Procedure: as §1

SARS-CoV-2 ORF3A = target: SARS-CoV-2 ORF3A
Procedure: as §1

SARS-CoV-2 ORF3B = target: SARS-CoV-2 ORF3B
Procedure: as §1

SARS-CoV-2 ORF6 = target: SARS-CoV-2 ORF6
Procedure: as §1

SARS-CoV-2 ORF7A = target: SARS-CoV-2 ORF7A
Procedure: as §1

SARS-CoV-2 ORF7B = target: SARS-CoV-2 ORF7B
Procedure: as §1

SARS-CoV-2 ORF8 = target: SARS-CoV-2 ORF8
Procedure: as §1

SARS-CoV-2 ORF9B = target: SARS-CoV-2 ORF9B
Procedure: as §1

[1] = target: SARS-CoV-2 ORF9Bwu (the 73-codon ORF)
Procedure: as §1

SARS-CoV-2 S = target: SARS-CoV-2 S
Procedure: as §1

SARS-CoV-2 N = target: SARS-CoV-2 N
Procedure: as §1

SARS-CoV-2 NSP14 = target: SARS-CoV-2 NSP14
Procedure: as §1

SARS-CoV-2 NSP4 = target: SARS-CoV-2 NSP4
Procedure: as §1

SARS-CoV-2 NSP8 = target: SARS-CoV-2 NSP8
Procedure: as §1

Measured: yeast fitness gain

B1: IRF9, Q00978 (protein)
chain: MASGRARCTRKLRNWVVEQVESGQFPGVCWDDTAKTMFRIPWKHAGKQDFREDQDAAFFKAWAIFKGKYKEGDTGGPAVWKTRLRCALNKSSEFKEVPERGRMDVAEPYKVYQLLPPGIVSGQPGTQKVPSKRQHSSVSSERKEEEDAMQNCTLSPSVLQDSLNNEEEGASGGAVHSDIGSSSSSSSPEPQEVTDTTEAPFQGDQRSLEFLLPPEPDYSLLLTFIYNGRVVGEAQVQSLDCRLVAEPSGSESSMEQVLFPKPGPLEPTQRLLSQLERGILVASNPRGLFVQRLCPIPISWNAPQAPPGPGPHLLPSNECVELFRTAYFCRDLVRYFQGLGPPPKFQVTLNFWEESHGSSHTPQNLITVKMEQAFARYLLEQTPEQQAAILSLV
inactive: SARS-CoV-2 E -0.215 | SARS-CoV-2 M 0.0443 | SARS-CoV-2 NSP1 = -0.094 | SARS-CoV-2 NSP10 = 0.0527 | SARS-CoV-2 NSP12 = 0.0649 | SARS-CoV-2 NSP13 = 0.0561 | SARS-CoV-2 NSP15 = -0.0158 | SARS-CoV-2 NSP16 = -0.177 | SARS-CoV-2 NSP2 = -0.138 | SARS-CoV-2 NSP5 = -0.00606 | SARS-CoV-2 NSP6 = -0.278 | SARS-CoV-2 NSP7 = 0.0359 | SARS-CoV-2 NSP9 = -0.0165 | SARS-CoV-2 ORF10 = -0.0263 | SARS-CoV-2 ORF3A -0.0604 | SARS-CoV-2 ORF3B -0.0758 | SARS-CoV-2 ORF6 = -0.00482 | SARS-CoV-2 ORF7A -0.205 | SARS-CoV-2 ORF7B 0.04 | SARS-CoV-2 ORF8 = -0.18 | SARS-CoV-2 ORF9B -0.0725 | [1] 0.115 | SARS-CoV-2 S 0.0336

B2: LSMD1, Q9BRA0 (protein)
chain: MAGAGPTMLLREENGCCSRRQSSSSAGDSDGEREDSAAERARQQLEALLNKTMRIRMTDGRTLVGCFLCTDRDCNVILGSAQEFLKPSDSFSAGEPRVLGLAMVPGHHIVSIEVQRESLTGPPYL
inactive: SARS-CoV-2 E -0.25 | SARS-CoV-2 N 0.0643 | SARS-CoV-2 NSP14 = 0.157 | SARS-CoV-2 NSP4 = 0.0386 | SARS-CoV-2 NSP8 = -0.0285 | SARS-CoV-2 ORF3A -0.0667

B3: MPP2, Q14168 (protein)
chain: MPVAATNSETAMQQVLDNLGSLPSATGAAELDLIFLRGIMESPIVRSLAKVIMVLWFMQQNVFVPMKYMLKYFGAHERLEETKLEAVRDNNLELVQEILRDLAHVAEQSSTAAELAHILQEPHFQSLLETHDSVASKTYETPPPSPGLDPTFSNQPVPPDAVRMVGIRKTAGEHLGVTFRVEGGELVIARILHGGMVAQQGLLHVGDIIKEVNGQPVGSDPRALQELLRNASGSVILKILPSYQEPHLPRQVFVKCHFDYDPARDSLIPCKEAGLRFNAGDLLQIVNQDDANWWQACHVEGGSAGLIPSQLLEEKRKAFVKRDLELTPNSGTLCGSLSGKKKKRMMYLTTKNAEFDRHELLIYEEVARMPPFRRKTLVLIGAQGVGRRSLKNKLIMWDPDRYGTTVPYTSRRPKDSEREGQGYSFVSRGEMEADVRAGRYLEHGEYEGNLYGTRIDSIRGVVAAGKVCVLDVNPQAVKVLRTAEFVPYVVFIEAPDFETLRAMNRAALESGISTKQLTEADLRRTVEESSRIQRGYGHYFDLCLVNSNLERTFRELQTAMEKLRTEPQWVPVSWVY
inactive: SARS-CoV-2 E -0.0885 | SARS-CoV-2 M -0.0145 | SARS-CoV-2 N 0.0498 | SARS-CoV-2 NSP1 = 0.0288 | SARS-CoV-2 NSP10 = 0.0222 | SARS-CoV-2 NSP12 = 0.0904 | SARS-CoV-2 NSP13 = 0.0586 | SARS-CoV-2 NSP16 = 0.0188 | SARS-CoV-2 NSP2 = -0.297 | SARS-CoV-2 NSP5 = -0.0281 | SARS-CoV-2 NSP6 = 0.00742 | SARS-CoV-2 NSP7 = -0.00528 | SARS-CoV-2 NSP8 = 0.0474 | SARS-CoV-2 NSP9 = -0.0995 | SARS-CoV-2 ORF10 = 0.0115 | SARS-CoV-2 ORF3A -0.227 | SARS-CoV-2 ORF3B -0.00924 | SARS-CoV-2 ORF6 = 0.023 | SARS-CoV-2 ORF7A 0.035 | SARS-CoV-2 ORF7B -0.0779 | SARS-CoV-2 ORF8 = 0.0581 | SARS-CoV-2 ORF9B -0.0226 | [1] 0.065 | SARS-CoV-2 S -0.0854

B4: PAIP2, Q9BPZ3 (protein)
chain: MKDPSRSSTSPSIINEDVIINGHSHEDDNPFAEYMWMENEEEFNRQIEEELWEEEFIERCFQEMLEEEEEHEWFIPARDLPQTMDQIQDQFNDLVISDGSSLEDLVVKSNLNPNAKEFVPGVKYGNI
active: SARS-CoV-2 NSP2 = 0.405
inactive: SARS-CoV-2 E -0.0474 | SARS-CoV-2 M 0.0873 | SARS-CoV-2 N 0.137 | SARS-CoV-2 NSP1 = -0.109 | SARS-CoV-2 NSP10 = 0.0888 | SARS-CoV-2 NSP12 = 0.0567 | SARS-CoV-2 NSP13 = 0.0745 | SARS-CoV-2 NSP14 = -0.0448 | SARS-CoV-2 NSP15 = 0.000832 | SARS-CoV-2 NSP16 = -0.0113 | SARS-CoV-2 NSP4 = 0.0664 | SARS-CoV-2 NSP5 = 0.0258 | SARS-CoV-2 NSP6 = 0.0239 | SARS-CoV-2 NSP7 = 0.076 | SARS-CoV-2 NSP8 = -0.0217 | SARS-CoV-2 NSP9 = 0.0104 | SARS-CoV-2 ORF10 = 0.0367 | SARS-CoV-2 ORF3A 0.0538 | SARS-CoV-2 ORF3B 0.068 | SARS-CoV-2 ORF6 = -0.0672 | SARS-CoV-2 ORF7A -0.0277 | SARS-CoV-2 ORF7B 0.0543 | SARS-CoV-2 ORF8 = 0.0137 | SARS-CoV-2 ORF9B 0.0252 | [1] 0.0147 | SARS-CoV-2 S 0.0506
